# According to publication PMC4336329 (PLoS ONE, 2015):
# Out of some 310,000 compounds screened, about 2,200 (0.71%) showed an effect of 50% or more. The effect is printed as a negative number. The list shows a part of the results.
# Target: human ether-à-go-go-related gene (hERG) potassium channel (human, UniProt Q12809)
# Assay: primary screen, population patch clamp on CHO cells stably expressing hERG
# human ether-à-go-go-related gene (hERG) potassium channel, sequence (Q12809 whole entry, looked up): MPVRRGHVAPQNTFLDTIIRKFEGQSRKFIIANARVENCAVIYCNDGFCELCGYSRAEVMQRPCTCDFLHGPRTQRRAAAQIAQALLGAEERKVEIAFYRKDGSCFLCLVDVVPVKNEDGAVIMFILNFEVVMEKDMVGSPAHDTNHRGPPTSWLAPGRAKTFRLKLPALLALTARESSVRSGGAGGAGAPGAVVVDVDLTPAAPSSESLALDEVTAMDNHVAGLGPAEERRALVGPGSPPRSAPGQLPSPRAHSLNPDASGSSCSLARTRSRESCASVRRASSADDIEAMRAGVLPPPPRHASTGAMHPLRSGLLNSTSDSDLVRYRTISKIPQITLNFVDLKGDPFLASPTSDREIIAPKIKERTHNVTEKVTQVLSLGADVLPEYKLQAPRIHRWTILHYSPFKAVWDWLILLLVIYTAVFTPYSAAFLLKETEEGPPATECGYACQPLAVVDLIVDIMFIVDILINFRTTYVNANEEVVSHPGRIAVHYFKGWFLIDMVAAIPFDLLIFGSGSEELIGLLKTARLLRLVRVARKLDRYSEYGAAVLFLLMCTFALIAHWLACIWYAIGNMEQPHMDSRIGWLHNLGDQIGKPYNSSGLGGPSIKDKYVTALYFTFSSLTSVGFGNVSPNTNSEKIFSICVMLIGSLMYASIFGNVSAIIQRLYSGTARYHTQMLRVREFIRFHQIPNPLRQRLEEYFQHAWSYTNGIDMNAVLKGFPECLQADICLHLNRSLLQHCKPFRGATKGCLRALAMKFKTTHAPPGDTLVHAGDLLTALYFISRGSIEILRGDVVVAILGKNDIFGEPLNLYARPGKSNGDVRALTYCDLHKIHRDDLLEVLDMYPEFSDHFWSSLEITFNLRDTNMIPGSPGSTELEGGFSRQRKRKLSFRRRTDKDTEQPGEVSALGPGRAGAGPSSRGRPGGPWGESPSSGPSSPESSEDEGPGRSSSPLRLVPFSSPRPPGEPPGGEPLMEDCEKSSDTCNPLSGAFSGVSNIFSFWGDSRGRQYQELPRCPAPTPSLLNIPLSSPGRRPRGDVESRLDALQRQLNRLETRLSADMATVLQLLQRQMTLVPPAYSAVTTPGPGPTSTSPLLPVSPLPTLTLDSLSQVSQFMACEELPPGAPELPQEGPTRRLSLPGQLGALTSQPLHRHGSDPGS
row,Compound,"hERG current change (%, negative = inhibition) at 1uM [%]"
1,O=C(CSc1nc2ccccc2c(=O)n1Cc1ccco1)NCc1ccco1,-40.8
2,CCOc1ccc(OCC)c(-c2c(=O)n(OCc3ccc(Cl)cc3)c3ccccc3[n+]2[O-])c1,11.9
3,CNC(=O)/C(C#N)=C/c1cn(CC(=O)NCc2ccco2)c2ccccc12,19.1
4,Nc1nc(N2CCOCC2)nc2ccccc12,-8.34
5,COc1ccc(N2C(=O)C3CC=C(Cl)CC3C2=O)cc1 (stereo not drawn),15
6,CCCCN=C(C)C1=C(O)CSC1=O,15.8
7,O=C(COc1ccc(Cl)cc1)Nc1ccc(N2CCN(C(=O)c3ccco3)CC2)cc1,-7.88
8,O=C(CSc1nnc(Cc2cccs2)n1Cc1ccco1)Nc1ccc(Cl)cc1Cl,-4.66
9,Cc1onc(-c2ccccc2)c1C(=O)NC(=S)NNC(=O)c1ccccc1O,11.9
10,O=c1oc2ccccc2c(O)c1[C@H]1c2ccc(O)cc2Oc2c1c(=O)oc1ccccc21,8.39
11,CCOc1ccc(NC(=S)N2CCn3c(nc4ccccc43)C2)cc1,-1.35
12,COC(=O)Nc1ccc(S(=O)(=O)N2CCCC(C(=O)NC3CCCCC3)C2)cc1 (stereo not drawn),7.06
13,COc1ccc(CNc2nc3c(c(=O)n(Cc4ccc(Br)cc4)c(=O)n3C)n2C)cc1,-10.5
14,N#CC(C(=O)Nc1cccc(Cl)c1)=C1Nc2ccccc2N1,12.9
15,O=C(C1CCCN1S(=O)(=O)c1cccc2cccnc12)N1CCn2c1nc1ccccc12 (stereo not drawn),-8.14
16,Cc1cc(C)c(OCC(=O)N/N=C/c2ccco2)c(C)c1,5.53
17,CC1(C)CC(CC(=O)O)(c2ccccc2)CCO1 (stereo not drawn),7.91
18,Cc1ccc(S(=O)(=O)N2CCOC2C(Cl)(Cl)Cl)cc1 (stereo not drawn),8.91
19,Cc1cc(-c2ccccc2)nc2c(Br)c(=O)[nH]n12,14.9
20,O=C(C[n+]1ccccc1)Nc1ccccc1,13.1
21,COc1ccc(/C=N/NC(=O)c2ccncc2)cc1COc1ccc(NC(C)=O)cc1,-1.38
22,Cc1ccc2nc(-c3ccc(NC(=S)NC4CC(C)(C)NC(C)(C)C4)cc3)sc2c1,13.1
23,Cc1oc(C)c(C(=O)NCCCC(=O)O)c1C(=O)NCCCC(=O)O,16.6

row,Compound,"hERG current change (%, negative = inhibition) at 1uM [%]"
1,CCCCOc1ccc(/C(O)=C2/C(=O)C(=O)N(Cc3cccnc3)C2c2ccncc2)c(C)c1 (stereo not drawn),1.71
2,CCNc1nc(N)nc(-c2cc(Cl)ccc2O)n1,24.8
3,O=C(C1CCCCCC1)N1CC[C@@H](N2CCC(O)CC2)[C@H](O)C1,13.2
4,O=c1nc(-c2ccccc2)c2ccccc2[nH]1,5.89
5,Cc1ccc(N(CC(O)CN2C(=O)NC(C)(C)C2=O)S(=O)(=O)c2ccc(C)cc2)cc1 (stereo not drawn),7.27
6,CCOC(=O)c1ccc(Nc2ncnc3ccc(C)cc23)cc1,8.61
7,O=C(Cc1ccccc1)N1CCCC(c2nc(-c3ccc(S(=O)(=O)N4CCCC4)cc3)no2)C1 (stereo not drawn),2.29
8,O=C(COC(=O)CCc1ccccc1)Nc1ncc(Cl)cc1Cl,-3.09
9,Cc1ccc(NC(=S)Nc2cccc3cnccc23)c(C)c1,25.6
10,CCCOC(=O)/C(C)=N\NC(=O)c1ccco1,13.6
11,Nc1nc(N)nc(-c2cc([N+](=O)[O-])ccc2O)n1,-1.87
12,Cc1cccc(NC(=O)COc2coc(CN3CCN(c4ccccc4)CC3)cc2=O)c1,9.66
13,Cc1ccc(-n2c(SCC(=O)Nc3cccc(C)c3)nc3c(oc4ccccc43)c2=O)cc1,16.5
14,O=c1oc2ccccc2c2c1nnn2CCO,14.4
15,Cc1ccc(NC(=O)COC(=O)C2COc3ccccc3O2)cc1S(=O)(=O)N1CCOCC1 (stereo not drawn),14.9
16,O=C(NC1CCCC1)C(c1ccccn1)N(C(=O)c1csnn1)c1ccccc1Br (stereo not drawn),1.68
17,CCN1CCN(C(=O)NC2CCCCC2)CC1.O=C(O)C(=O)O,14.6
18,CCN(CC)c1ccc(/C=N/N2C(=O)c3ccccc3C2=O)cc1,12.6
19,CC1Cc2ccccc2N1C(=O)COC(=O)Cn1cnc2ccccc2c1=O (stereo not drawn),6.3
20,COCCN=c1scc(-c2cccs2)n1/N=C(\C)c1ccco1,3.08
21,COc1ccc(N(C(=O)COc2ccccc2)C2C=CS(=O)(=O)C2)cc1 (stereo not drawn),-3.91
22,COc1cc(SC)ccc1C(=O)Nc1cccc(C2OCCCO2)c1,-2.97
